Measurements reported in PubChem BioAssay AID602310 (National Center for Advancing Translational Sciences (NCATS), 2012).
Among all 410,000 compounds or so, about 310 (0.076%) were called active. The inconclusive results got no clear call from the source; some entries with a clear call stand among them for comparison. Calls come from the whole dose curve; as a rule, active = well fitted curve in the direction sought with a large enough effect; inconclusive = small, poorly fitted or top-dose-only effect; inactive = flat fitted curve, though single readings scatter. Potencies of inconclusive entries are doubtful fits and often do not repeat.

The molecules below were run against DNA dC->dU-editing enzyme APOBEC-3G (Homo sapiens) (UniProt Q9HC16) (assay: qHTS for Inhibitors of Vif-A3G Interactions: qHTS). Conditions: HeLa A3G-eYFP + Vif (tagged APOBEC3G with the HIV-1 protein that degrades it), YFP fluorescence, overnight; series mostly up to 46.1 µM; activity, negative = active: at the top concentration.
Outline: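 HeLa cells stably expressing Vif and C-terminally eYFP-tagged A3G, seeded overnight at 37 deg C, then exposed to compound by pintool overnight at 37 deg C. Rise in yellow fluorescence (Ex 488/Em 500-530, Acumen) marks blocked Vif-driven A3G degradation.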
% is set by controls: 0 for no effect and ±100 for the full control effect; potency is the fitted concentration of half-maximal effect; tags give direction and shape of the fitted curve.
Note: nearly all actives have a fitted effect of over 60% in size.
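Throughout, for activity, negative = active: hits raise eYFP signal because A3G escapes Vif-driven loss.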

Chain of UniProt Q9HC16 (Q9HC16 whole entry, looked up): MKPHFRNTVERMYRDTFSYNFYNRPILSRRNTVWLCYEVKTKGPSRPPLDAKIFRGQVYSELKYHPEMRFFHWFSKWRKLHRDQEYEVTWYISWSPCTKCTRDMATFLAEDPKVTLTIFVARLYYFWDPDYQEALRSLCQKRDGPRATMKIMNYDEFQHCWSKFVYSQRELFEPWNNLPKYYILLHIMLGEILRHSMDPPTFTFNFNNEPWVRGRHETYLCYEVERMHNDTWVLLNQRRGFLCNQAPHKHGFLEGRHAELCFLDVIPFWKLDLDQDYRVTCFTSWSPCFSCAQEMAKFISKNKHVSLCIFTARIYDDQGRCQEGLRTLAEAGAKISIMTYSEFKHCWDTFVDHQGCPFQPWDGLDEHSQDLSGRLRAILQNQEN

SMILES | activity, negative = active | Potency
O=C(CN(CC1CCCO1)C(=O)CCC(=O)Nc1ccccn1)NCC1CCCO1 (stereo not given) | inactive: 0.322% | 
Cc1cc(C)cc(-n2c3ccc(NC(=O)Cc4cccc5ccccc45)cc3c(=O)n2C)c1 |  | inconclusive: 0.562 µM [inhibitor, full curve, poor fit]
O=C(N/N=C/c1cccc(F)c1)c1c(O)c2ccccc2[nH]c1=O | inactive: 0% | 
O=C(O)CC(Cc1ccccc1)c1ccc2c(c1)OCO2 (stereo not given) |  | inconclusive: 35.5 µM [inhibitor, partial curve, poor fit]
COc1cc(C(C)=O)ccc1OCC(O)Cn1nc(C)c(Br)c1C (stereo not given) | inactive: -2% | 
COC(=O)c1ccccc1NC(=O)Cn1nc(C(F)(F)F)c2c1CCCC2 | inactive: 9.03% | 
COc1cc(C(=O)NCC(=O)N2CCN(S(=O)(=O)c3cc(C)ccc3C)CC2)cc(OC)c1OC |  | active: 6.31 µM
COc1ccc(C(OC(=O)c2cccs2)C(=O)NCC2CCCO2)cc1 (stereo not given) | inactive: -0.352% | 
COc1ccc(/C=C2/C(=O)OCc3cc(OC)c(OC)cc32)cc1 |  | inconclusive: 1.78 µM [inhibitor, full curve, poor fit]
Cc1c(Cl)cnc(NC(=O)COC(=O)/C=C/c2ccco2)c1Cl | inactive: -3.23% | 
Cc1cccc(OCCOc2ccccc2C=C(C#N)C#N)c1 |  | inconclusive: 11.2 µM [inhibitor, partial curve]
COc1c(OC(C)=O)ccc(/C=C/c2ccc3cccc(OC)c3n2)c1[N+](=O)[O-] | inactive: -5.21% | 
CC(C)(C)S(=O)N1Cc2cc(C(=O)NCc3ccc(Oc4ccccc4)cc3)nc(-c3cccc(-c4cc5ccccc5o4)c3)c2[C@H]1CCO (stereo not given in full) | inactive: -10.3% | 
O=C(O)c1ccc(Cl)c(S(=O)(=O)N(Cc2ccccc2)c2ccccc2Cl)c1 | inactive: -24.9% | 
Cc1ccc2[nH]c(C(=O)NN=C3CCCCC3)c(-c3ccccc3)c2c1 |  | inconclusive: 12.6 µM [inhibitor, partial curve]
COC(=O)C[C@H]1c2cc(F)ccc2S(=O)(=O)N1C1CC1 | inactive: -1.1% | 
Cc1ccc(OCc2nc(C#N)c(NCc3ccc4c(c3)OCO4)o2)cc1 | inactive: 3.8% | 
Cc1cccc(NC(=S)N/N=C/c2ccc([N+](=O)[O-])s2)c1 |  | inconclusive: 7.94 µM [inhibitor, partial curve]
O=c1oc2ccc(F)cc2cc1-c1nc(-c2cccs2)no1 | inactive: -2.73% | 
Cc1cc(NC(=O)/C(C#N)=C\c2ccc(-c3ccc(SC(F)F)cc3)o2)n(-c2ccccc2)n1 |  | inconclusive: 5.01 µM [inhibitor, single point]
Cn1ncc2c(NCc3ccco3)ncnc21 | inactive: -0.493% | 
Cc1onc(-c2ccccc2)c1C(=O)NC(=S)NNC(=O)c1cc(-c2ccc(F)cc2)n[nH]1 | inactive: 3.24% | 
COc1ccc2c(c1)CC=C1C2CCC2(C)C(=O)C(=NO)CC12 (stereo not given) |  | inconclusive: 20 µM [inhibitor, single point]
COc1ccc(-c2c/c(=N\c3nc(-c4ccccc4)c(C)s3)c3ccccc3o2)cc1O |  | inconclusive: 2 µM [inhibitor, partial curve, poor fit]

SMILES | activity, negative = active | Potency
Cc1ccc2cc(/C=N/Nc3ccc(C(=O)O)cc3)c(Cl)nc2c1 |  | inconclusive: 25.1 µM [inhibitor, single point]
CC(C)(C)C1CCc2c(sc(NC(=O)CSc3ncn[nH]3)c2C#N)C1 (stereo not given) | inactive: -15.4% | 
Cc1ccc(CNC(=O)c2nnn(Cc3ccc(F)cc3)c2N)cc1 | inactive: 1.11% | 
CCOc1cc(N2CCOCC2)c(OCC)cc1NS(=O)(=O)c1ccc(Cl)s1 |  | inconclusive: 2.82 µM [inhibitor, full curve, poor fit]
CCc1cc(=O)oc2cc3occ(-c4ccc(OC)c(F)c4)c3cc12 |  | inconclusive: 0.708 µM [inhibitor, full curve, poor fit]
C(=C\c1nccc2c1[nH]c1ccccc12)/c1ccccc1 |  | inconclusive: 7.08 µM [inhibitor, full curve]
Cc1nc2c(C)cccc2cc1C(=O)N/N=C/c1ccc(N(C)C)cc1 |  | inconclusive: 7.08 µM [inhibitor, full curve]
CCn1cc(C(=O)NCC(OC)OC)c(=O)c2cc(S(=O)(=O)N3CCOCC3)ccc21 | inactive: 1.32% | 
COCCCNc1nccn2ccnc12 |  | inconclusive: 6.31 µM [inhibitor, single point]
COC(=O)Cn1cnc2c(Cl)nc(F)nc21 |  | inconclusive: 22.4 µM [inhibitor, single point]
CCc1ccc(S(=O)(=O)/N=C2/C=C(Sc3ncn[nH]3)C(=O)c3ccccc32)cc1 |  | inconclusive: 20 µM [inhibitor, partial curve, poor fit]
CCN(CCC#N)c1ccc(/C=C/c2ccnc3ccccc23)cc1 |  | inconclusive: 22.4 µM [inhibitor, single point]
Nc1ccc(C(=O)n2c3ccccc3c3ccccc32)cc1 |  | inconclusive: 0.562 µM [inhibitor, full curve, poor fit]
Cc1cccc(CN2CCN(C(=O)CCl)CC2)c1 |  | inconclusive: 35.5 µM [inhibitor, single point]
COc1cccc(/C=N/NC(=O)CSc2cccc3cccnc23)c1 | inactive: -23.5% | 
O=C(Cc1ccc(Br)cc1)NCc1ccccc1 |  | inconclusive: 3.98 µM [inhibitor, full curve]
COc1ccc(S(=O)(=O)Nc2cc3c(C(C)=O)c(C)oc3c3ccccc23)cc1 |  | inconclusive: 0.631 µM [inhibitor, full curve, poor fit]
CC(=O)Nc1nonc1-c1nnc(SCC(=O)Nc2cccc(C)c2C)n1-c1ccccc1 | inactive: 4.74% | 
O=C(N/N=C/c1ccc2c(c1)OCO2)c1cccc2ccccc12 |  | inconclusive: 7.08 µM [inhibitor, partial curve, poor fit]
CN(C)c1ccc(/C=C/c2ccnc3c(N)cccc23)cc1 |  | inconclusive: 3.55 µM [inhibitor, full curve]
CCSc1nc2c([nH]c3ccccc32)c(=O)n1-c1cccc(OC)c1 |  | inconclusive: 35.5 µM [inhibitor, single point]
COc1ccc(-c2cc(-c3c(O)c(OC)c4occc4c3OC)[nH]n2)cc1OC | inactive: 4.11% | 
Cc1ccc(C(C)C)c(OCC(=O)NN=C2CCCCCCC2)c1 |  | inconclusive: 17.8 µM [inhibitor, single point]
O=c1ccsn1Cc1ccccc1 |  | inconclusive: 35.5 µM [inhibitor, single point]

SMILES | activity, negative = active | Potency
N#Cc1c(NC(=O)CCCl)sc2c1CCCCC2 |  | inconclusive: 10 µM [inhibitor, partial curve, poor fit]
Cc1ccc(S(=O)(=O)NCCSc2nnnn2-c2ccc(C(N)=O)cc2)cc1 | inactive: -0.875% | 
C=C1CC[C@@H]2[C@](C)(CO)[C@H](O)CC[C@@]2(C)[C@@H]1C/C=C1/C(=O)OCC1O (stereo not given in full) |  | inconclusive: 22.4 µM [inhibitor, single point]
Cc1ccc(C)c(NC2=C(Cl)C(=O)OC2OC(=O)c2ccco2)c1 (stereo not given) |  | inconclusive: 35.5 µM [inhibitor, partial curve, poor fit]
CC(=O)Nc1nc(C)c(-c2csc(Nc3ccc(O)cc3)n2)s1 |  | inconclusive: 11.2 µM [inhibitor, partial curve, poor fit]
Cc1ccc(/C=N/Nc2nnc(Cl)c3ccccc23)cc1 | inactive: -7.41% | 
CC1(C)C[C@H](O)[C@]2(CO)[C@H](O)C[C@]3(C)C(=CCC4[C@@]5(C)CC[C@H](O)C(C)(C)C5CC[C@]43C)[C@@H]2C1 (stereo not given in full) |  | inconclusive: 25.1 µM [inhibitor, single point]
Cc1ccc(C2CC(c3cccs3)=NN2C(=O)CCl)cc1 (stereo not given) | inactive: -18.5% | 
CN1CCN(C2=C(Cl)C(=O)C(c3cnc(N4CCCCC4)s3)=C(Cl)C2=O)CC1 |  | inconclusive: 22.4 µM [inhibitor, single point]
O=c1nc(Oc2ccccc2)nc2ncccn12 |  | inconclusive: 22.4 µM [inhibitor, single point]
Clc1ccc(CONc2ncnc3nonc23)c(Cl)c1 | inactive: -6.73% | 
COc1ccc(Nc2nc(C)nc3sc4c(c23)CCC4)cc1O |  | inconclusive: 3.55 µM [inhibitor, full curve]
C#CCOCCOCCOCCNc1nc(N2CCN(C(=O)CCCCCCCCCCNC(=O)Cn3cc(C[C@@H](C)O)nn3)CC2)nc(N2CCN(C(=O)CCCCCCCCCCNC(=O)[C@@H]([C@H](C)O)n3cc(C)nn3)CC2)n1 |  | inconclusive: 31.6 µM [inhibitor, single point]
Cc1ccc(Cn2c(/C=C/c3ccco3)nc3ccccc32)cc1 |  | inconclusive: 35.5 µM [inhibitor, single point]
CCOC(=O)C(Cc1ccccc1)NC(=O)CNC(=O)CNC(=O)OCc1ccccc1 (stereo not given) | inactive: -7.93% | 
CCOC(=O)c1c(N)n(C2CC(C)(C)NC(C)(C)C2)c2nc3ccccc3nc12 | inactive: -1.19% | 
O=C(Cn1cnc2onc(-c3ccc(F)cc3)c2c1=O)Nc1cccc(C(F)(F)F)c1 | inactive: -7.19% | 
O=C1N/C(=N\N=C\c2cccs2)SC1Cc1cccc(Cl)c1 (stereo not given) |  | inconclusive: 4.47 µM [inhibitor, full curve, poor fit]
COc1cc(NC2=Nc3cccc4cccc2c34)cc(OC)c1OC |  | inconclusive: 22.4 µM [inhibitor, single point]
COc1ccc(NS(=O)(=O)c2cc(NC(=O)CNC(=O)c3cccc(OC)c3)ccc2C)cc1 |  | inconclusive: 35.5 µM [inhibitor, single point]
O=C(Nc1ccccn1)c1ccc([N+](=O)[O-])o1 |  | inconclusive: 28.2 µM [inhibitor, partial curve, poor fit]
Cc1ccc(/C=N/NC(=O)CSc2nc3ccccc3o2)cc1 |  | inconclusive: 10 µM [inhibitor, partial curve]
